Data on 2 molecules can be found in patent US20230348569A1.

Where “and” joins values, the source holds several entries; their conditions need not be identical. Equal entries are not always repeated. Where two headings read alike, the source gives them in different places.

Experiment [1] addresses T1, SARS-COV-2-S RBD extracellular domain expressed with a C-terminal myc-myc-hexahistidine (SARS-COV-2 RBD-MMH) (SARS-CoV-2). As to conditions: remark: other sources report otherwise.
Experiment [2] has as its target T1, SARS-COV-2-S RBD extracellular domain …. Particulars: remark: other sources report otherwise. This is another data set of the same source.

B1: mAb10932 (antibody)
heavy: EVQLVESGGGLVQSGGSLRLSCAASGLTVSSNYMSWVRQAPGKGLEWVSVIYSGGSTFYSDSVKGRFTISRHNSKNTLYLQMNSLRAEDTAVYYCARARGDAFDIWGQGTMVTVSS[human IgG1 constant region left out here]
light: DIQMTQSPSSLSASVGDRVTITCQASQGISNYLNWYQQKPGKAPKLLISDASNLETGVPSRFSGSGSGTDFTFTISSLQPEDIATYYCQQYDNLRFFTFGPGTKVDIKRTVAAPSVFIFPPSDEQLKSGTASVVCLLNNFYPREAKVQWKVDNALQSGNSQESVTEQDSKDSTYSLSSTLTLSKADYEKHKVYACEVTHQGLSSPVTKSFNRGEC
In general, t½ refers to the time needed for the level to fall by half in the phase considered. Low readings indicate rapid decline, high ones slow decline. Regarding B1, the t½ in experiment [1] was 540 s.

B2: mAb10937 (antibody)
heavy: QITLKESGPTLVKPTQTLTLTCTFSGFSLSTNVVGVGWIRQPPGKALEWLALIYWNDDKRYSPSLKSRLTITKDTSKNQVVLTMTNMDPVDTATYYCAHGPTGDYFDYWGQGTLVTVSS[human IgG1 constant region left out here]
light: [about 100 residues left out here][about 120 residues left out here]
Consider B2, for which the t½ in experiment [2] is 36 s and 42 s.
